# From PMC4336329 (PLoS ONE, 2015)
# The whole screen tested about 310,000 compounds, of which about 14,000 (4.5%) showed an effect of 50% or more. Effects have a minus sign here. Some of the results follow.
# Target: human ether-à-go-go-related gene (hERG) potassium channel (human, UniProt Q12809)
# Assay: primary screen, population patch clamp on CHO cells stably expressing hERG
# 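Note: peak tail current of the secondary pulse compared with the same well before compound.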
# Chain of human ether-à-go-go-related gene (hERG) potassium channel (Q12809 whole entry, looked up): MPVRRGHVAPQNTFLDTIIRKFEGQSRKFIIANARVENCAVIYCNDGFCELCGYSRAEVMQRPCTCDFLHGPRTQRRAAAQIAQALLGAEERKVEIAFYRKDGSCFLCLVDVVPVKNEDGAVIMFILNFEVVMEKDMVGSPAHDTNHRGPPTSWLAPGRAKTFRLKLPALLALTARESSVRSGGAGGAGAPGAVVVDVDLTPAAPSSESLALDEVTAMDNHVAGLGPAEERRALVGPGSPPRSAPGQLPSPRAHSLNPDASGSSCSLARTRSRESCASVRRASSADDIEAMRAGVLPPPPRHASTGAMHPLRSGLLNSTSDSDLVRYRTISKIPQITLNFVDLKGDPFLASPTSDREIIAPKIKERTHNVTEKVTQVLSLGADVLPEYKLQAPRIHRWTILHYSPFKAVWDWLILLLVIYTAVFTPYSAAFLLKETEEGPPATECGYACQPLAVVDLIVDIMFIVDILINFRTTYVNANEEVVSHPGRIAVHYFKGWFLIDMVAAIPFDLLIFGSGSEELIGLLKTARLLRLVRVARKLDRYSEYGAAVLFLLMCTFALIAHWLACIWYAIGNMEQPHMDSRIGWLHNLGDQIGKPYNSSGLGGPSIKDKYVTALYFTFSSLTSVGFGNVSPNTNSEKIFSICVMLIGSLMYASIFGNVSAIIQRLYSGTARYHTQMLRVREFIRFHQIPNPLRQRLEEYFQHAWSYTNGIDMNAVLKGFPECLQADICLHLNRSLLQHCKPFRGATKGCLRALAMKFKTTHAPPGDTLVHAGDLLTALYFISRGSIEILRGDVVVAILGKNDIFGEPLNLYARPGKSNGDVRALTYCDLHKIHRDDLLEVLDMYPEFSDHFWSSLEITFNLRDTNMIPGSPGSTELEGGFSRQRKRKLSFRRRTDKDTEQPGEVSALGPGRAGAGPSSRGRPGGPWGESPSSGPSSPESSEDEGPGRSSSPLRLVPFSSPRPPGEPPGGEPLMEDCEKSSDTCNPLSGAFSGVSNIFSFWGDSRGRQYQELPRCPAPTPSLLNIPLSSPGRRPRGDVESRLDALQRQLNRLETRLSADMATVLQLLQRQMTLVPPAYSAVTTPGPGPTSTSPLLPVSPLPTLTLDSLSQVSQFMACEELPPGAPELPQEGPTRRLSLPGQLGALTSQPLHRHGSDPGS
row,SMILES,"hERG current change (%, negative = inhibition) at 10uM"
1,CCn1c(SCC(=O)Nc2cccc(NC(C)=O)c2)nnc1-c1ccco1,14.8%
2,Cc1cc(C)n(CCC(=O)N/N=C/c2ccc(O)cc2)n1,14.4%
3,Cc1cc(C)cc(NC(=O)CC2Oc3ccc(C)cc3NC2=O)c1 (centres unmarked),14.3%
4,Cc1ccc2c(c1)N(CCCC(=O)NCCCN1CCCCC1)C(=O)CO2,-22.7%
5,CCOc1ccc(CCNC(=O)c2ccc3c(=O)[nH]c4c(C(=O)NC(C)C)sc(=S)n4c3c2)cc1,10.2%
6,Cc1nn(CCCC(=O)Nc2cccnc2)c(C)c1[N+](=O)[O-],11.4%
7,CCCCCn1c(N2CCCC2)nc2c1c(=O)n(C)c(=O)n2C,-9.54%
8,CN(C)c1ccc(/C=N/NC(=O)C2CC2c2ccccc2)cc1 (centres unmarked),-74.9%
9,Cn1c(COc2ccccc2)nnc1SCCC(=O)Nc1ccccc1,-18.9%
10,CN1CCN(C(CNC(=O)C(=O)NC2CCCC2)c2ccc(F)cc2)CC1 (centres unmarked),-19.4%
11,O=C(O)/C=C/c1cccc(NS(=O)(=O)c2ccccc2)c1,-0.468%
12,C=CCNc1nc(N)c(C(=C(C#N)C#N)c2ccc(Br)cc2)s1,-9.15%
13,CC(=O)c1c(C)n(CC(=O)NCc2ccc3c(c2)OCO3)c2ccccc12,-6.29%
14,CCOC(=O)Cc1nc2ccccc2o1,29.4%
15,O=C(O)C(=O)O.O=S(=O)(c1ccc(Cl)cc1)N(CCCN1CCOCC1)Cc1cccs1,-63.7%
16,COC(=O)c1ccccc1NC(=O)CCC(=O)N1CC(C)Oc2ccc(C)cc21 (centres unmarked),-16.5%
17,Cc1noc2ncnc(Oc3cc(Cl)ccc3Cl)c12,11.4%
18,CCCN(C(=O)COC(=O)Cn1c(=O)oc2ccccc21)c1c(N)n(Cc2ccccc2)c(=O)[nH]c1=O,8.49%
19,N#Cc1c(-c2cccc(F)c2)cc(-c2ccccc2)nc1Br,16%

row,SMILES,"hERG current change (%, negative = inhibition) at 10uM"
1,COc1cccc(NC(=O)COC(=O)c2c(-c3ccccc3)noc2C)c1,2.53%
2,COc1ccc(N2CCN(C(=O)CCNS(=O)(=O)c3ccc(C)cc3)CC2)cc1,-18%
3,Cc1noc(C)c1COc1ccc(C(=O)OCC(N)=O)cc1,18%
4,Cc1coc2c(C)c3oc(=O)c(CCC(=O)NCCC(=O)O)c(C)c3cc12,21.3%
5,CCOC(=O)C(NC(=O)C(Cc1ccc(N(CCCl)CCCl)cc1)NC(C)=O)C(C)C (centres unmarked),-3.97%
6,CCOc1ccccc1NC(=O)CCn1cccc1,-0.776%
7,COc1cccc(-c2cc(C(=O)Nc3ccn(Cc4ccc(C)cc4)n3)no2)c1,17.3%
8,CC1CC(C)CN(C(=O)c2nn(C)c3c2CSc2ccccc2-3)C1 (centres unmarked),-5.28%
9,COc1ccc(NC(=O)CC(C(=O)O)N2CCCCC2)cc1 (centres unmarked),-2.4%
10,CC(C)(C)OC(=O)c1c(N)n(Cc2ccco2)c2nc3ccccc3nc12,-5.55%
11,O=[N+]([O-])c1ccc(C(O)CN=Cc2ccc(O)cc2O)cc1 (centres unmarked),6.19%
12,Cc1ccc(S(=O)(=O)CCC(=O)Nc2ccc3nc(C)sc3c2)cc1,3.75%
13,COc1ccc2nc(C)cc(Nc3ccc(N4CCOCC4)cc3)c2c1.Cl,-60.9%
14,COc1ccc(N2C(=O)CSC2c2ccccc2[N+](=O)[O-])cc1 (centres unmarked),-3.3%
15,Cc1ncc([N+](=O)[O-])n1CCOC(=O)NC(Nc1ccc(F)cc1)C(Cl)(Cl)Cl (centres unmarked),-54.6%
16,O=C1N(c2ccccc2)C[C@@H]2C[C@@H](c3cccs3)N3CCC[C@@]123,-11.5%
17,COc1ccccc1C(c1c(O)nc(SC)[nH]c1=O)c1c(O)nc(SC)[nH]c1=O,19.2%
18,O=C(NCCCn1ccnc1)C(=O)NCC1OCCN1S(=O)(=O)c1ccccc1 (centres unmarked),10.6%
19,COc1ccc(CN2C(=O)c3ccccc3C2=O)cc1C(=O)N(C)CC(=O)Nc1ccc(F)cc1,-25.1%

row,SMILES,"hERG current change (%, negative = inhibition) at 10uM"
1,O=c1c2ccccc2nc2sc(Nc3cccc(Cl)c3)nn12,5.94%
2,Cc1cc(=O)oc(C)c1C(=O)Nc1cccnc1Cl,12.8%
3,C=CCn1c(SCC(=O)NNC(=O)Nc2ccc(C)cc2)nnc1-c1ccccc1,8.5%
4,O=C(NC1CCS(=O)(=O)C1)c1ccc(N2CCCCC2)c([N+](=O)[O-])c1 (centres unmarked),-0.968%
5,Oc1ccc(Br)cc1-c1ccn[nH]1,-4.61%
6,CCCCn1c(N)c(N(CCOC)C(=O)c2cc(-c3ccc(C)cc3)nc3ccccc23)c(=O)[nH]c1=O,6.75%
7,O=C(O)c1ccc(CSc2nnc(-c3ccccc3Cl)n2-c2ccccc2)cc1,14.6%
8,CC(C)CCN1CC(C(=O)NCc2ccc(F)cc2)CC1=O (centres unmarked),-3.6%
9,COc1ccc(NC(=O)CCn2cccc2)cc1,-1.47%
10,CCOc1ccccc1NC(=O)CSc1nnnn1-c1ccc(C(=O)OC)cc1,0.536%
11,COc1ccc2c(c1)CCN1C2CCN2C(=O)CCC21 (centres unmarked),6.69%
12,Cc1ccc(N2CC(NS(=O)(=O)c3cccs3)CC2=O)cc1C (centres unmarked),0.686%
13,O=C(NCCC1=CCCCC1)c1cc(-c2ccccn2)nc2ccccc12,8.77%
14,Cc1ccc(/C=C/C(=O)NCc2cccs2)o1,-7.91%
15,CC(C)c1ccc(NC(=O)C2C3C=CC4(O3)C2C(=O)N(CCCN2CCCCC2)C4C(=O)NC2CCCCC2)cc1 (centres unmarked),9.89%
16,O=C(CN1CCN(c2ccccn2)CC1)Nc1ccccc1Br,-31.6%
17,O=[N+]([O-])c1cccc(-c2ccc(/C=N/n3c(-c4ccccc4)n[nH]c3=S)o2)c1,3.09%
18,Cc1cc(C)c(S(=O)(=O)Cc2ccc(Cl)cc2)c(=O)[nH]1,13.2%
